# Assay results taken from PMC5540273 (PLoS ONE, 2017).
# This is a selection; strong and weak results do not stand in their true shares.
# Tested on: T1, NDR1
# T1 construct: gene STK38
# Conditions: concentration: 1 μM,replicates: in singlicate; n = 1
# 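Further: KINOMEscan kinase panel screen.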
row,SMILES,%Inh [%]
1,O=C1NC(=O)C(c2ccccc2Cl)=C1Nc1ccccc1 [SB-376715],2
2,CSc1ccc(NC2=C(c3cccc(Cl)c3)C(=O)NC2=O)cc1 [SB-341528],13
3,O=C1NC(=O)C(c2ccc(Cl)cc2)=C1Nc1ccccc1 [SB-317661],50
4,COc1ccc(C2=C(Nc3cccc(Cl)c3)C(=O)NC2=O)cc1 [SB-326892],0
5,O=C1NC(=O)C(c2ccccc2Cl)=C1Nc1cccc(C(=O)O)c1 [SB-390526],18
6,COc1cccc(C2=C(Nc3ccc(SC)cc3)C(=O)NC2=O)c1 [SB-331032],13
7,O=C(O)c1ccc(-c2nc(-c3ccc(F)cc3)c(-c3ccncc3)[nH]2)cc1 [SB-202620],34
8,O=C1NC(=O)C(c2ccccc2)=C1Nc1ccc(Cl)c(C(=O)O)c1 [SB-390532],6
9,O=C1NC(=O)C(c2ccc(Cl)cc2)=C1Nc1cccc(O)c1 [SB-333613],28
10,CS(=O)(=O)c1ccccc1-c1nc(-c2ccc(F)cc2)c(-c2ccncc2)[nH]1 [SB-213663],0
11,Cc1cc(C)cc(Oc2nccc(-c3c(-c4ccc(F)cc4)ncn3C3CCNCC3)n2)c1.O=C(O)C(F)(F)F.O=C(O)C(F)(F)F.O=C(O)C(F)(F)F [SB-284851],0
12,O=C1NC(=O)C(c2ccc(Cl)cc2)=C1Nc1cccc(C(=O)O)c1 [SB-360737],7
13,O=C1NC(=O)C(c2ccc(Cl)cc2)=C1Nc1ccc(O)c(Cl)c1 [SB-405367],18
14,O=C1NC(=O)C(c2ccccc2)=C1Nc1cc(Cl)c(O)c(Cl)c1 [SB-390530],12
15,Cc1ccc(C)c(Oc2nccc(-c3c(-c4ccc(F)cc4)ncn3C3CCNCC3)n2)c1.O=C(O)C(F)(F)F.O=C(O)C(F)(F)F.O=C(O)C(F)(F)F [SB-284852],51
16,O=C1NC(=O)c2c1c(-c1ccccc1)cc1[nH]c3ccc(O)cc3c21,17
